The text below walks through data of the BET-seq Pho4 binding data (Le et al. 2018).

The list shows a part of the results. The energies were worked out here from pooled read counts, against the library average; single values are noisy.

The target of this assay is T1, Pho4 (S. cerevisiae) (UniProt P07270).
T1 sequence: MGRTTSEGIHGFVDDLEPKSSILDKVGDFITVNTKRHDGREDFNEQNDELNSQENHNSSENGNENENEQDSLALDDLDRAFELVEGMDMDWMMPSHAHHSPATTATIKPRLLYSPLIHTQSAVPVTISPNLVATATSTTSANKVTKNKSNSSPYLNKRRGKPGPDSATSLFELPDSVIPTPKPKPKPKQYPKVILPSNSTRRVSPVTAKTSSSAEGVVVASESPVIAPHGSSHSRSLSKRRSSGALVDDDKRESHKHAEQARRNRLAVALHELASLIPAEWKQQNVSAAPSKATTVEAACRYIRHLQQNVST
Briefly: relative binding free energy (BET-seq); higher = weaker binding. The conditions noted are these: reference: library average.
Turning to CGAGCCACGTGGGGTT, the “relative binding free energy” value is -0.17 kcal/mol. As for TGGGACACGTGAATGG, the “relative binding free energy” value came to 0.26 kcal/mol. To AGATTCACGTGACGGG belongs 0.35 kcal/mol; to CTTGTCACGTGTACGG, 0.06 kcal/mol.

Consider TTGAACACGTGTTGTG, for which the “relative binding free energy” value was 0 kcal/mol. To AGTGGCACGTGGTTAT belongs -0.16 kcal/mol; to CAGGACACGTGTGGTG, -0.05 kcal/mol; to TTAATCACGTGTGTTG, 0.18 kcal/mol. Next, TTAGTCACGTGATGTG: 0.16 kcal/mol. Next, TGGCACACGTGGACGG: 0.17 kcal/mol; TAGTTCACGTGGGGAA: 0.23 kcal/mol; CGAAGCACGTGTGTTA: 0.02 kcal/mol.

Regarding CGGTGCACGTGCTGCG, the “relative binding free energy” value was found to be 0 kcal/mol. To GCATTCACGTGTGAGG belongs 0.22 kcal/mol. On to AGGGTCACGTGAGTGC, for which the “relative binding free energy” value was found to be 0.15 kcal/mol. Next, CGTCGCACGTGTGTAG: -0.16 kcal/mol; CTTGTCACGTGGGGTC: -0.03 kcal/mol; TTGAGCACGTGTAATA: 0.02 kcal/mol. On to TAGGTCACGTGCGATG, for which the “relative binding free energy” value came out at 0.06 kcal/mol. For ATGGTCACGTGGTATG, the “relative binding free energy” value amounted to 0.02 kcal/mol. To TGAGTCACGTGTTAGG belongs 0.05 kcal/mol; to TTCAGCACGTGTGTAT, 0.06 kcal/mol. Regarding ATTCGCACGTGTAGGG, the “relative binding free energy” value is -0.13 kcal/mol.

With GGATCCACGTGGGGGT, the “relative binding free energy” value was -0.08 kcal/mol. Next, CCGGGCACGTGTGGCG: -0.03 kcal/mol. On to GGTGGCACGTGAGTAG, for which the “relative binding free energy” value is 0.26 kcal/mol.

AGGGGCACGTGAGCGT: the “relative binding free energy” value is -0.02 kcal/mol. To ATAGGCACGTGTGGTT belongs -0.08 kcal/mol; to GATTGCACGTGAGAGT, 0.21 kcal/mol; to TGCTGCACGTGGGCAG, -0.24 kcal/mol. Next, TATATCACGTGATTTG: 0.2 kcal/mol; TTTATCACGTGAGTGG: 0.34 kcal/mol; ATAGTCACGTGGCTGG: 0.03 kcal/mol.

Consider ATTGACACGTGTCTGG, for which the “relative binding free energy” value stood at 0.03 kcal/mol.

Turning to GAGGTCACGTGTCGAG, the “relative binding free energy” value stood at 0.3 kcal/mol. Next, TTATGCACGTGGGCGT: -0.19 kcal/mol; ATGGCCACGTGGGAGT: -0.16 kcal/mol; TGGGCCACGTGGGGTC: -0.12 kcal/mol. Next, TATGGCACGTGGAGTT: -0.07 kcal/mol; ATATTCACGTGTATTG: 0.2 kcal/mol. Turning to AGGTACACGTGGCGTA, the “relative binding free energy” value came out at 0.03 kcal/mol. Next, GTATCCACGTGTGGCG: 0.18 kcal/mol; GTGTGCACGTGGGTCA: -0.2 kcal/mol.

For the sequence ATGGACACGTGGTTGA, the “relative binding free energy” value worked out at 0.14 kcal/mol.

With TCAGGCACGTGGTATG, the “relative binding free energy” value is -0.21 kcal/mol. Take GAAAACACGTGGAGGT: the “relative binding free energy” value amounted to 0.05 kcal/mol.

For the sequence TTGGGCACGTGAACGG, the “relative binding free energy” value came to 0.04 kcal/mol. To GAGGGCACGTGATCTG belongs 0.11 kcal/mol; to TAGGACACGTGCGGGC, 0.08 kcal/mol; to AATAGCACGTGCGGGT, -0.12 kcal/mol.

Consider TTGTCCACGTGAGTGG, for which the “relative binding free energy” value turned out to be 0.32 kcal/mol.

Consider TTTGTCACGTGATCAA, for which the “relative binding free energy” value was 0.09 kcal/mol. To TGCCACACGTGTGTTG belongs 0.12 kcal/mol. For the sequence TGTGCCACGTGGTAGA, the “relative binding free energy” value is -0.09 kcal/mol.

For AGATGCACGTGCATGT, the “relative binding free energy” value was -0.04 kcal/mol.

On to TTATTCACGTGGATAA, for which the “relative binding free energy” value was found to be 0.15 kcal/mol. To AATGGCACGTGTCGAT belongs -0.07 kcal/mol; to TGTGACACGTGTTGAT, 0.05 kcal/mol; to GCGGACACGTGGAGTT, 0.1 kcal/mol.

With CTGGTCACGTGTGGGC, the “relative binding free energy” value was determined as 0.19 kcal/mol. On to TGTATCACGTGGATTG, for which the “relative binding free energy” value amounted to 0.07 kcal/mol. To GCTAGCACGTGTAGGA belongs 0.17 kcal/mol; to CAGGGCACGTGGGGCA, -0.31 kcal/mol; to GTTTCCACGTGAGGAT, 0.3 kcal/mol. To GTGTGCACGTGGAGAT belongs 0.02 kcal/mol. Next, TAGTGCACGTGTCGTT: -0.03 kcal/mol; CGGGGCACGTGGAAGG: -0.06 kcal/mol. As for TAGATCACGTGAATTG, the “relative binding free energy” value was determined as 0.4 kcal/mol.

Take TTATGCACGTGCGCTA: the “relative binding free energy” value is -0.05 kcal/mol. To CTGTTCACGTGAGAGG belongs 0.41 kcal/mol.

Take CTTAGCACGTGTTTTT: the “relative binding free energy” value is -0.11 kcal/mol. Next, GTTTCCACGTGGAAGG: 0.25 kcal/mol; TTATCCACGTGTATTT: 0.09 kcal/mol. To TTCGACACGTGAGTTT belongs 0.22 kcal/mol; to CGGGTCACGTGTATAG, 0.04 kcal/mol; to TGGGGCACGTGCTCGA, -0.28 kcal/mol. Next, TATGTCACGTGGACTA: 0.08 kcal/mol. Regarding AACTGCACGTGGTTGT, the “relative binding free energy” value was -0.08 kcal/mol. To ATGGACACGTGTATAG belongs 0.11 kcal/mol; to GGGTTCACGTGAGTGA, 0.4 kcal/mol. To TCAAGCACGTGGAGTG belongs -0.03 kcal/mol; to TTTTCCACGTGGGCTA, 0.01 kcal/mol.

CGTAGCACGTGTGGTA: the “relative binding free energy” value was -0.07 kcal/mol.

On to GAAATCACGTGGGTAT, for which the “relative binding free energy” value came to 0.11 kcal/mol. To GGAAGCACGTGGATCG belongs 0.11 kcal/mol; to CTTGTCACGTGAGATT, 0.24 kcal/mol; to GCAGGCACGTGGGGTT, -0.25 kcal/mol. To GTTCTCACGTGTTTTG belongs 0.24 kcal/mol; to TGGTGCACGTGAAAAA, 0.29 kcal/mol; to AGCGGCACGTGGTGTC, -0.09 kcal/mol. Regarding TGTATCACGTGCGTAA, the “relative binding free energy” value was 0.15 kcal/mol. Take TCGTGCACGTGAGGTG: the “relative binding free energy” value came out at 0.13 kcal/mol. Next, GGGTGCACGTGCTGCG: -0.03 kcal/mol; TTATTCACGTGAAAGG: 0.53 kcal/mol; GGTGTCACGTGGTGTA: 0.03 kcal/mol. Next, GACGGCACGTGTAGGT: 0.02 kcal/mol; ATAGGCACGTGCATTG: -0.19 kcal/mol. To GGGAACACGTGTTTAG belongs 0.13 kcal/mol; to TGGGTCACGTGCAAAG, 0.11 kcal/mol; to TTGAGCACGTGAAGAG, 0.27 kcal/mol. Consider AAATTCACGTGCGTTT, for which the “relative binding free energy” value was 0.17 kcal/mol. To ATGAGCACGTGCAGTG belongs -0.15 kcal/mol. TCAATCACGTGATGGG: the “relative binding free energy” value stood at 0.23 kcal/mol.

As to TACCGCACGTGGGGGT, the “relative binding free energy” value is -0.21 kcal/mol. To GGGGTCACGTGGTCTG belongs 0.1 kcal/mol; to GGAGCCACGTGGGGCT, -0.18 kcal/mol; to TGTGGCACGTGGACGC, -0.12 kcal/mol. TTTTCCACGTGTTATG: the “relative binding free energy” value worked out at 0.06 kcal/mol.

As to AGTTGCACGTGAAGGG, the “relative binding free energy” value came out at 0.39 kcal/mol. Next, ATGGTCACGTGTCGGA: 0.14 kcal/mol; GCATTCACGTGTGGAT: 0.22 kcal/mol. Next, GGTGTCACGTGTGCGT: -0.02 kcal/mol; TTGGTCACGTGTAAAT: 0.09 kcal/mol. To AGTGGCACGTGCAGTG belongs -0.13 kcal/mol; to AGTTCCACGTGGATGT, -0.06 kcal/mol.
